Measurements: patent US20260184782A1 (TWIST BIOSCIENCE, published 2026)

Columns and labels:
TIGIT [1] = molecular target: T1, TIGIT (UniProt Q495A1 22-141, limits assumed); assay: ELISA
T1 construct: construct not described; also called T cell immunoreceptor with Ig and ITIM domains
T1 sequence (looked up): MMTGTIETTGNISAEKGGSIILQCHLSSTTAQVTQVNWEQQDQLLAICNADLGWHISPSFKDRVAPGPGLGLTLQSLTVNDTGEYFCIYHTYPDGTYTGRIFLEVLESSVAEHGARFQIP

TIGIT [2] = molecular target: T1, TIGIT; assay: Carterra SPR, VHH-Fc

B1: TIGIT-29-42 VHH-Fc (Fc fusion)
chain: EVQLVESGGGLVQAGGSLRLSCAASGSTFSTYAMGWFRQAPGKEREFVATISTSSSRTYYADSVKGRFTISADNAKNTVYLQMNSLKPEDTAVYYCAARLWGTWTAGDYDYWGQGTQVTVSLGGGGS[in this place human IgG1 Fc with C220S (EU numbers)]
TIGIT [1]
  ELISA: 10
TIGIT [2]
  Kd: 114 nM
  koff: 66 s⁻¹
  kon: 5.8e+08 M⁻¹ s⁻¹

B2: TIGIT-29-14 VHH-Fc (Fc fusion)
chain: EVQLVESGGGLVQAGGSLRLSCAASGFTFSDYVMGWFRQAPGKEREFVSAISWSGTNTNYADSVKGRFTISADNAKNTVYLQMNSLKPEDTAVYYCATRALRDGRGYWGQGTQVTVSSGGGGS[in this place human IgG1 Fc with C220S (EU numbers)]
TIGIT [1]
  ELISA: 5.2
TIGIT [2]
  Kd: 231 nM
  koff: 0.057 s⁻¹
  kon: 250000 M⁻¹ s⁻¹

B3: TIGIT-29-20 VHH-Fc (Fc fusion)
chain: EVQLVESGGGLVQAGGSLRLSCAASGSTFSIYAMGWFRQAPGKERELVASISWSGDTTNYADSVKGRFTISADNAKNTVYLQMNSLKPEDTAVYYCAAGSVYGRNSWGQGTQVTVTSGGGGS[in this place human IgG1 Fc with C220S (EU numbers)]
TIGIT [1]
  ELISA: 5.9
TIGIT [2]
  Kd: 83 nM
  koff: 83 s⁻¹
  kon: 1e+09 M⁻¹ s⁻¹

B4: TIGIT-30-49 VHH-Fc (Fc fusion)
chain: EVQLVESGGGLVQAGGSLRLSCAASGNIFSRYIMGWFRQAPGKEREWVAGISNGGTTKYADSVKGRFTISADNAKNTVYLQMNSLKPEDTAVYYCAQGWKIVPTNWGQGTQVTVSSGGGGS[in this place human IgG1 Fc with C220S (EU numbers)]
TIGIT [1]
  ELISA: 10.3
TIGIT [2]
  Kd: 62 nM
  koff: 18 s⁻¹
  kon: 3e+08 M⁻¹ s⁻¹

B5: TIGIT-30-03 VHH-Fc (Fc fusion)
chain: EVQLVESGGGLVQAGGSLRLSCAASGNIFSRYIMGWFRQAPGKEREWVAGISNGGTTKYADSVKGRFTISADNAKNTVYLQMNSLKPEDTAVYYCAQGWKIRPTIWGQGTQVTVSSGGGGS[in this place human IgG1 Fc with C220S (EU numbers)]
TIGIT [1]
  ELISA: 4.3
TIGIT [2]
  Kd: 273 nM
  koff: 270 s⁻¹
  kon: 1e+09 M⁻¹ s⁻¹

B6: TIGIT-30-24 VHH-Fc (Fc fusion)
chain: EVQLVESGGGLVQAGGSLRLSCAASGNIFSRYIMGWFRQAPGKEREWVAGISNGGTTKYADSVKGRFTISADNAKNTVYLQMNSLKPEDTAVYYCAQGWKIIPTDWGQGTQVTVSSGGGGS[in this place human IgG1 Fc with C220S (EU numbers)]
TIGIT [1]
  ELISA: 5.3
TIGIT [2]
  Kd: 133 nM
  koff: 76 s⁻¹
  kon: 5.7e+08 M⁻¹ s⁻¹

B7: TIGIT-30-34 VHH-Fc (Fc fusion)
chain: EVQLVESGGGLVQAGGSLRLSCAASGNIFSRYIMGWFRQAPGKEREWVAGISSGGTTKYADSVKGRFTISADNAKNTVYLQMNSLKPEDTAVYYCAQGWKIVPTNWGQGTQVTVSSGGGGS[in this place human IgG1 Fc with C220S (EU numbers)]
TIGIT [1]
  ELISA: 7.2
TIGIT [2]
  Kd: 130 nM
  koff: 64 s⁻¹
  kon: 4.9e+08 M⁻¹ s⁻¹

B8: TIGIT-30-5 VHH-Fc (Fc fusion)
chain: EVQLVESGGGLVQAGGSLRLSCAASGGTFRNYGMGWFRQAPGKERELVAAISWSGVSTIYADSVKGRFTISADNAKNTVYLQMNSLKPEDTAVYYCASSPYGPLYRSTHYYDWGQGTQVTVSSGGGGS[in this place human IgG1 Fc with C220S (EU numbers)]
TIGIT [1]
  ELISA: 9.3
TIGIT [2]
  Kd: 100 nM

B9: TIGIT-30-6 VHH-Fc (Fc fusion)
chain: EVQLVESGGGLVQAGGSLRLSCAASGRFSRINSMGWFRQAPGKERELVAHIFRSGITSYASYADSVKGRFTISADNAKNTVYLQMNSLKPEDTAVYYCAIGRGSWGQGTQVTVSSGGGGS[in this place human IgG1 Fc with C220S (EU numbers)]
TIGIT [1]
  ELISA: 3.8
TIGIT [2]
  Kd: 567 nM
  koff: 0.0087 s⁻¹
  kon: 15000 M⁻¹ s⁻¹

B10: TIGIT-30-7 VHH-Fc (Fc fusion)
chain: EVQLVESGGGLVQAGGSLRLSCAASGIPASIRTMGWFRQAPGKEREGISLITSDDGSTYYADSVKGRFTISADNAKNTVYLQMNSLKPEDTAVYYCAWTTNRGMDWGQGTQVTVSSGGGGS[in this place human IgG1 Fc with C220S (EU numbers)]
TIGIT [1]
  ELISA: 3.1
TIGIT [2]
  Kd: 285 nM
  koff: 0.099 s⁻¹
  kon: 350000 M⁻¹ s⁻¹

B11: TIGIT-30-18 VHH-Fc (Fc fusion)
chain: EVQLVESGGGLVQAGGSLRLSCAASGRAFSLRTMGWFRQAPGKEREGISLITSDDGSTYYADSVKGRFTISADNAKNTVYLQMNSLKPEDTAVYYCAWTTNRGMDWGQGTQVTVSSGGGGS[in this place human IgG1 Fc with C220S (EU numbers)]
TIGIT [1]
  ELISA: 4.1
TIGIT [2]
  Kd: 741 nM
  koff: 0.068 s⁻¹
  kon: 92000 M⁻¹ s⁻¹

B12: TIGIT-30-32 VHH-Fc (Fc fusion)
chain: EVQLVESGGGLVQAGGSLRLSCAASGIIGTIRTMGWFRQAPGKEREGISLITSDDGSTYYADSVKGRFTISADNAKNTVYLQMNSLKPEDTAVYYCAWTTNRGMDWGQGTQVTVSSGGGGS[in this place human IgG1 Fc with C220S (EU numbers)]
TIGIT [1]
  ELISA: 6
TIGIT [2]
  Kd: 207 nM
  koff: 0.06 s⁻¹
  kon: 290000 M⁻¹ s⁻¹

B13: TIGIT-30-9 VHH-Fc (Fc fusion)
chain: EVQLVESGGGLVQAGGSLRLSCAASGPISGINRMGWFRQAPGKEREWVSTITFNGDHTYYADSVKGRFTISADNAKNTVYLQMNSLKPEDTAVYYCAARPYTRPGSMWVSSLYDWGQGTQVTVSSGGGGS[in this place human IgG1 Fc with C220S (EU numbers)]
TIGIT [1]
  ELISA: 8
TIGIT [2]
  Kd: 79 nM
  koff: 0.011 s⁻¹
  kon: 130000 M⁻¹ s⁻¹

B14: TIGIT-30-10 VHH-Fc (Fc fusion)
chain: EVQLVESGGGLVQAGGSLRLSCAASVRTFSLSDMGWFRQAPGKEREFVGAINWLSESTYYADSVKGRFTISADNAKNTVYLQMNSLKPEDTAVYYCAAQGGVLSGWDWGQGTQVTVSSGGGGS[in this place human IgG1 Fc with C220S (EU numbers)]
TIGIT [1]
  ELISA: 4.2
TIGIT [2]
  Kd: 336 nM
  koff: 0.039 s⁻¹
  kon: 120000 M⁻¹ s⁻¹

B15: TIGIT-30-51 VHH-Fc (Fc fusion)
chain: EVQLVESGGGLVQAGGSLRLSCAASGSIFSISDMGWFRQAPGKEREFVGAINWLSESTYYADSVKGRFTISADNAKNTVYLQMNSLKPEDTAVYYCAAQGGVLSGWDWGQGTQVTVSSGGGGS[in this place human IgG1 Fc with C220S (EU numbers)]
TIGIT [1]
  ELISA: 3.4
TIGIT [2]
  Kd: 897 nM
  koff: 890 s⁻¹
  kon: 9.9e+08 M⁻¹ s⁻¹

B16: TIGIT-30-38 VHH-Fc (Fc fusion)
chain: EVQLVESGGGLVQAGGSLRLSCAASGSIASFNAMGWFRQAPGKEREWVSSVYIFGGSTYYADSVKGRFTISADNAKNTVYLQMNSLKPEDTAVYYCANSNKPKFDWGQGTQVTVSSGGGGS[in this place human IgG1 Fc with C220S (EU numbers)]
TIGIT [1]
  ELISA: 3.9
TIGIT [2]
  Kd: 360 nM
  koff: 92 s⁻¹
  kon: 2.6e+08 M⁻¹ s⁻¹

B17: TIGIT-30-11 VHH-Fc (Fc fusion)
chain: EVQLVESGGGLVQAGGSLRLSCAASGSITSIRSMGWFRQAPGKEREWVSSVYIFGGSTYYADSVKGRFTISADNAKNTVYLQMNSLKPEDTAVYYCANSNKPKFDWGQGTQVTVSSGGGGS[in this place human IgG1 Fc with C220S (EU numbers)]
TIGIT [1]
  ELISA: 7.2
TIGIT [2]
  Kd: 221 nM
  koff: 0.056 s⁻¹
  kon: 250000 M⁻¹ s⁻¹

B18: TIGIT-30-29 VHH-Fc (Fc fusion)
chain: EVQLVESGGGLVQAGGSLRLSCAASGSSLSFNAMGWFRQAPGKEREWVSSVYIFGGSTYYADSVKGRFTISADNAKNTVYLQMNSLKPEDTAVYYCANSNKPKFDWGQGTQVTVSSGGGGS[in this place human IgG1 Fc with C220S (EU numbers)]
TIGIT [1]
  ELISA: 4.3
TIGIT [2]
  Kd: 148 nM
  koff: 0.073 s⁻¹
  kon: 490000 M⁻¹ s⁻¹

B19: TIGIT-30-36 VHH-Fc (Fc fusion)
chain: EVQLVESGGGLVQAGGSLRLSCAASGSIASIHAIGWFRQAPGKEREWVSSVYIFGGSTYYADSVKGRFTISADNAKNTVYLQMNSLKPEDTAVYYCANSNKPKFDWGQGTQVTVSSGGGGS[in this place human IgG1 Fc with C220S (EU numbers)]
TIGIT [1]
  ELISA: 6.4
TIGIT [2]
  Kd: 179 nM
  koff: 0.12 s⁻¹
  kon: 660000 M⁻¹ s⁻¹

B20: TIGIT-30-37 VHH-Fc (Fc fusion)
chain: EVQLVESGGGLVQAGGSLRLSCAASGRTFSSKAMGWFRQAPGKEREWVSSVYIFGGSTYYADSVKGRFTISADNAKNTVYLQMNSLKPEDTAVYYCANSNKPKFDWGQGTQVTVSSGGGGS[in this place human IgG1 Fc with C220S (EU numbers)]
TIGIT [1]
  ELISA: 4.2
TIGIT [2]
  Kd: 235 nM
  koff: 0.041 s⁻¹
  kon: 170000 M⁻¹ s⁻¹

B21: TIGIT-30-13 VHH-Fc (Fc fusion)
chain: EVQLVESGGGLVQAGGSLRLSCAASGRTFSNYFMGWFRQAPGKERESVAAINWDSARTYYADSVKGRFTISADNAKNTVYLQMNSLKPEDTAVYYCASAGRWGQGTQVTVSSGGGGS[in this place human IgG1 Fc with C220S (EU numbers)]
TIGIT [1]
  ELISA: 3.2
TIGIT [2]
  Kd: 106 nM
  koff: 82 s⁻¹
  kon: 7.7e+08 M⁻¹ s⁻¹

B22: TIGIT-30-52 VHH-Fc (Fc fusion)
chain: EVQLVESGGGLVQAGGSLRLSCAASGRTFSNYFMGWFRQAPGKERESVATVTWRDNITYYADSVKGRFTISADNAKNTVYLQMNSLKPEDTAVYYCASAGRWGQGTQVTVSSGGGGS[in this place human IgG1 Fc with C220S (EU numbers)]
TIGIT [1]
  ELISA: 4.2
TIGIT [2]
  Kd: 49 nM
  koff: 0.27 s⁻¹
  kon: 5.4e+06 M⁻¹ s⁻¹
